Laboratory results: publication PMC6664820, “Novel natural and synthetic inhibitors of solute carriers SGLT1 and SGLT2” (Pharmacology Research & Perspectives, 2019)
About 40 (2%) of roughly 1,900 compounds showed an effect of 50% or more. This is one part of the list.

target: human SGLT1 (hSGLT1) (human, UniProt P13866); assay: primary screen, percent of control activity; higher = less effect of the substance; design: single well; conditions: 50 µM
Summary of the method: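 Single-point screen at 50 µmol/L in CHO-hSGLT1 cells, with 160 µmol/L 1-NBD-glucose in glucose-free DMEM for 90 min at 37°C. Fluorescence from isopropanol extracts was calibrated, and CHO wild-type uptake was subtracted. Data are percent of uptake without compound.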

Chain of human SGLT1 (hSGLT1) (P13866 whole entry, looked up): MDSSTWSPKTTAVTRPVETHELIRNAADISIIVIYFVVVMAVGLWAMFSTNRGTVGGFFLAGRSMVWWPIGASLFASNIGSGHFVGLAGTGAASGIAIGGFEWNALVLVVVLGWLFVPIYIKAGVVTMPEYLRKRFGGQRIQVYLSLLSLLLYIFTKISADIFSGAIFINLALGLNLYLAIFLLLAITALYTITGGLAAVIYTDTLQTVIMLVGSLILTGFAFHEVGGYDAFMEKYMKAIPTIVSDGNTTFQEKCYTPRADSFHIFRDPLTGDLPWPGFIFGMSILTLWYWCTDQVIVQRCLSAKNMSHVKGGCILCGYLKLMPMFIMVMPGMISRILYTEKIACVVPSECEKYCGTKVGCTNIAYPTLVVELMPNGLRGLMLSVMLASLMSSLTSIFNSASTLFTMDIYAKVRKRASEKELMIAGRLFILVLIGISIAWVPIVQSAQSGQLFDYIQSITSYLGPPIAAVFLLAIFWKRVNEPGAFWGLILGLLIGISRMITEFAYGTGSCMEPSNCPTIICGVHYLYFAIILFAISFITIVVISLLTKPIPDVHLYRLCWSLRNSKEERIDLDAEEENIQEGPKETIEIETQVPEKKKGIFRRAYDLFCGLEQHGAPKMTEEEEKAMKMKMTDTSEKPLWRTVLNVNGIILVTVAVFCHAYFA

SMILES | NORMALIZED SGLT1 ACTIVITY (%)
CS(=O)(=O)Nc1ccc([N+](=O)[O-])cc1Oc1ccccc1 | 265
COc1ccc2c(=O)ccoc2c1 | 223
CN(C)CCCN1c2ccccc2Sc2ccc(Cl)cc21 | 60
CSCCC(NC=O)C(=O)NC(C)C(=O)O (centres unmarked) | 110
O=C1CN(/N=C/c2ccc(-c3ccc([N+](=O)[O-])cc3)o2)C(=O)[N-]1.[Na+] | 103
O=C1O[C@H]([C@@H](O)CO)C(O)=C1O | 103
COc1cc(OC)c2ccc(=O)oc2c1 | 193
CCn1cc(C(=O)O)c(=O)c2cnc(N3CCCC3)nc21 | 193
NS(=O)(=O)c1cc2c(cc1C(F)(F)F)NCNS2(=O)=O | 94
CC(C)(C)NCC(O)c1cc(O)cc(O)c1.O=S(=O)(O)O (centres unmarked) | 113
CNCCC=C1c2ccccc2CCc2ccccc21.Cl | 103
COc1c2ccoc2cc2oc(C)cc(=O)c12 | 165
Cl.NCCCCCCNS(=O)(=O)c1cccc2c(Cl)cccc12 | 186
COC(=O)C[C@H]1C(C)(C)[C@@H](O)[C@@H]2CC3=C4CC(O)O[C@@H](c5ccoc5)[C@]4(C)CCC3[C@@]1(C)C2=O (some centres unmarked) | 127
COC(=O)[C@@H]1OC(=O)C2OC23[C@@]1(C)CCC1[C@@]2(C)CCC(=O)C(C)(C)C2C[C@@H](OC(C)=O)[C@]13C (some centres unmarked) | 112
CC1[C@H](C)OC(=O)CC(O)CC(O)CC(O)CCC(O)C(O)C[C@]2(O)CC(O)C(C(=O)O)C(CC(OC3O[C@H](C)[C@@H](O)[C@H](N)[C@@H]3O)/C=C/C=C/C=C/C=C/CC/C=C/C=C/[C@H](C)[C@H]1O)O2 (some centres unmarked) | 82
CCCCCCC(C)OC(=O)COc1cc(Cl)c(Cl)cc1Cl (centres unmarked) | 93
NC(=O)c1ccc[n+]([C@@H]2O[C@H](COP(=O)([O-])OP(=O)(O)OC[C@H]3O[C@@H](n4cnc5c(N)ncnc54)[C@H](OP(=O)([O-])O)[C@@H]3O)[C@@H](O)[C@H]2O)c1.[Na+] | 90
CCC1(C)CC(=O)NC1=O (centres unmarked) | 94
O=C1C(O)=C(O)C(=O)C(O)=C1O | 98
COC(=O)Nc1nc2ccc(S(=O)c3ccccc3)cc2[nH]1 (centres unmarked) | 125
COc1cc(C)c2c(=O)cc(-c3ccccc3)oc2c1 | 195

SMILES | NORMALIZED SGLT1 ACTIVITY (%)
COc1ccccc1/C=C\C(=O)O | 95
C[C@]12C=CC(=O)C=C1CCC1C2CC[C@]2(C)C(=O)CCC12 (some centres unmarked) | 102
CC(C)CCC[C@@H](C)[C@H]1CC[C@H]2[C@@H]3C[C@@H](O)[C@@]4(O)C[C@@H](O)CC[C@]4(C)[C@H]3CC[C@]12C | 109
CC(C)(C)NC[C@H](O)COc1nsnc1N1CCOCC1.O=C(O)/C=C\C(=O)O | 106
C[C@H]1CCCC(=O)CCC/C=C/c2cc(O)cc(O)c2C(=O)O1 | 53
CN(C)C(=O)Oc1cccc([N+](C)(C)C)c1.[Br-] | 109
CC1/C(=N/O)C[C@@H]2C[C@H]1C2(C)C (some centres unmarked) | 136
CCCCC1C(=O)N(c2ccccc2)N(c2ccccc2)C1=O | 112
Br.CC(Cc1ccc(O)cc1)NCC(O)c1cc(O)cc(O)c1 (centres unmarked) | 143
CC(C)c1c(O)ccc2c1CCC1C(C)(C(=O)O)CCCC21C (centres unmarked) | 234
CCCCCNC(=N)N/N=C/c1c[nH]c2ccc(OC)cc12.O=C(O)/C=C\C(=O)O | 141
C[C@]12C=CC(=O)C=C1CCC1C2[C@@H](O)C[C@@]2(C)C1CC[C@]2(O)C(=O)CO (some centres unmarked) | 117
C[C@H](CS)C(=O)N1CCC[C@H]1C(=O)O | 125
S=C=NCc1ccccc1 | 121
CC(C)NCC(O)COc1cccc2[nH]ccc12 (centres unmarked) | 99
COC(=O)C1=C(C)NC(C)=C(C(=O)OC)C1c1ccccc1[N+](=O)[O-] | 240
O=c1oc2cc(O)ccc2s1 | 147
C[C@@H](CO)NC(=O)C1C=C2c3cccc4[nH]cc(c34)C[C@H]2N(C)C1.O=C(O)/C=C\C(=O)O (some centres unmarked) | 105
CCCC(C)(COC(N)=O)COC(=O)NC(C)C (centres unmarked) | 117
CCC(C)[C@H]1O[C@]2(C=C[C@@H]1C)C[C@@H]1C[C@@H](C/C=C(\C)[C@@H](OC3C[C@H](OC)C(O[C@H]4C[C@H](OC)[C@@H](O)[C@H](C)O4)[C@H](C)O3)[C@@H](C)/C=C/C=C3\CO[C@@H]4[C@H](O)C(C)=C[C@@H](C(=O)O1)[C@]34O)O2 (some centres unmarked) | 124
CC(=O)O[C@H]1C[C@@H](OC(C)=O)C(C)(C)C2C[C@@H](OC(C)=O)[C@]3(C)C([C@H](OC(C)=O)C[C@@]4(C)[C@H](c5ccoc5)OC(=O)[C@H]5O[C@]543)[C@]21C (some centres unmarked) | 101
O=c1oc2ccccc2c(O)c1Cc1c(O)c2ccccc2oc1=O | 288
